Data published in PMC6212790.
Some of the results follow. At the low end of the ranking the order means little.
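Also: rank score from −0.5 (least bound) to 0.5 (best bound).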

The sequences below were run against T1, GST-Rok (full length) (UniProt O34857) (assay: protein binding microarray). Settings: Rok is a gene silencer of Bacillus subtilis; high values mean tight binding; most listed sequences are background and not binding sites; double strand, one strand shown.
T1 sequence: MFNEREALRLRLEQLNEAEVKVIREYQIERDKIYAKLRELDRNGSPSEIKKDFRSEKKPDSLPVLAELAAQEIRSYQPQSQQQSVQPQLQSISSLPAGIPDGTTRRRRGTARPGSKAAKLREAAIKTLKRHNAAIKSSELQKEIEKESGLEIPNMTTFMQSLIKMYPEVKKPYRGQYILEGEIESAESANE
AAAGCCCC gave a binding signal of -0.362 E-score. For GGCTACTA, the binding signal was 0.015 E-score. Sequence ACTAGTTA has a binding signal of 0.44 E-score. In the case of AAGTCCCA, the binding signal was -0.198 E-score. AGTACGTA was tested, and the binding signal was 0.332 E-score. In the case of CTGCTAAA, the binding signal was -0.121 E-score. AGCAGATA gave a binding signal of 0.131 E-score. With GAGTGATC the binding signal was -0.15 E-score. With CTAAGGGC the binding signal was -0.245 E-score. For CGTTACCC, the binding signal was -0.276 E-score. GAAACCAC was tested, and the binding signal was 0.0661 E-score. With AATGGCAT the binding signal was 0.0869 E-score. For GAACCGAA, the binding signal was -0.116 E-score. ACCGTTCG gave a binding signal of -0.278 E-score. AAAAGCAA gave a binding signal of -0.000488 E-score. Sequence AGCAAACA has a binding signal of -0.0161 E-score. With ACCTCTGC the binding signal was -0.0747 E-score. In the case of GCCACCAA, the binding signal was -0.0714 E-score. For GTTCGCGA, the binding signal was -0.00446 E-score. With TAAGCCCA the binding signal was -0.183 E-score. CATGGTCC was tested, and the binding signal was -0.277 E-score. CTACGCGA showed a binding signal of -0.00796 E-score. Work on AGGTTCCC yielded a binding signal of -0.341 E-score. With CTAAGTCA the binding signal was 0.0393 E-score. For AGACCAAT, the binding signal was -0.0485 E-score. ACATCTAA gave a binding signal of 0.123 E-score. CTGTGCTC gave a binding signal of -0.274 E-score. Sequence ACAGTAGG has a binding signal of 0.221 E-score. Work on TCAACTGA yielded a binding signal of 0.0834 E-score. Work on AACTATTA yielded a binding signal of 0.431 E-score. GCTCGACC was tested, and the binding signal was -0.197 E-score. For AAAGGTAC, the binding signal was 0.223 E-score. CGCGCAGA was tested, and the binding signal was -0.0557 E-score. Work on GACTGAAC yielded a binding signal of 0.0317 E-score. Work on ATTTTCGC yielded a binding signal of 0.0459 E-score. Sequence GCATAAGC has a binding signal of -0.0954 E-score. GGGCGAAC was tested, and the binding signal was -0.258 E-score. CCGGACCA gave a binding signal of -0.244 E-score. For CGCCGTAG, the binding signal was -0.119 E-score. With GCTCGTTA the binding signal was -0.119 E-score. ATTTTACC showed a binding signal of 0.351 E-score. For AGGCTCAG, the binding signal was -0.242 E-score. ACTACCGA was tested, and the binding signal was 0.246 E-score. For CAAGGCAG, the binding signal was -0.148 E-score. CAAATTGA was tested, and the binding signal was 0.0439 E-score. GTTATACA gave a binding signal of 0.213 E-score. Sequence AGATCAGG has a binding signal of -0.0342 E-score. CCCTCAGG was tested, and the binding signal was -0.44 E-score. CCCAAATC was tested, and the binding signal was -0.143 E-score. ACCAGCCT was tested, and the binding signal was 0.00892 E-score. CCCGGCAG gave a binding signal of -0.105 E-score. With TCAGTACA the binding signal was 0.141 E-score. With ATCTCAAG the binding signal was -0.081 E-score. GTTCTTGA gave a binding signal of -0.0529 E-score. For GGAATTCA, the binding signal was -0.0849 E-score. Work on TACAGTGA yielded a binding signal of 0.0355 E-score. With TCCTACCA the binding signal was 0.175 E-score. For ATCTGCGG, the binding signal was -0.237 E-score. With CTAGGCAC the binding signal was -0.0526 E-score. AAAGTCAC showed a binding signal of -0.0982 E-score. Work on CAGGGTCC yielded a binding signal of -0.336 E-score. CCTTTCCG gave a binding signal of -0.184 E-score. Sequence CCAGAATC has a binding signal of -0.034 E-score. Work on CCCCCTTA yielded a binding signal of -0.398 E-score. AACAGAGC showed a binding signal of 0.0781 E-score. In the case of AGCCAGCG, the binding signal was -0.123 E-score. With CGGACCGC the binding signal was -0.217 E-score. AGCGCATG showed a binding signal of 0.0184 E-score. CTCTAGAA gave a binding signal of 0.0532 E-score. With AGATGGCG the binding signal was 0.046 E-score. Sequence TAGTCAGA has a binding signal of -0.138 E-score. Sequence GAGAGTTA has a binding signal of 0.13 E-score. With AACGGTTA the binding signal was -0.137 E-score. ATAAGTCA showed a binding signal of 0.16 E-score. GGGACCTA showed a binding signal of -0.0617 E-score. With CTCTACTA the binding signal was 0.216 E-score. For CGACCTTA, the binding signal was 0.0197 E-score. For ATCGGCGC, the binding signal was -0.0302 E-score. Work on ATCGACTA yielded a binding signal of 0.144 E-score. Sequence ACGGCGCA has a binding signal of -0.225 E-score. ATTTAACA gave a binding signal of 0.223 E-score. For CTAAGACA, the binding signal was -0.139 E-score. For ATGGGAAC, the binding signal was -0.0776 E-score. GTATAAAA was tested, and the binding signal was 0.343 E-score. In the case of TGACCACA, the binding signal was -0.252 E-score. AAAAACGG showed a binding signal of -0.143 E-score.
